Data published in the RNAGym collection of RNA variant scans (doi:10.7554/elife.90254).
Read counts are not given, so values of variants with three or more changes are uncertain.

B1: LINE1-mini (parent)
chain: GGCAGAGCUCAACACAGCGUGGCAAAGUGGCUGUGGCUAGACUGCC

Variants of: B1
Assay: self-cleavage, relative activity (ratio to wild type); higher = more cleavage; in vitro, sequencing; the parent is a self-cleaving ribozyme

Variant | self-cleavage
G1U C18G A24U G27U U38C | 0.01
U9A A16C G17A C23G G29A | 0.14
G2A C18A A25G G30C | 0.07
A11C G30U G36A | 0.03
A4G G17U U20A G21C G22U G27U | 0.1
G1A A4C G33U A41G | 0.4
C15A G33U U34G | 0.02
G2C C31G G36U | 0.24
A4G G7U C10A G22U A39U | 0.03
C8G G17U G27A C31U U32G | 0.02
G17U U20C C23G | 0.21
C10A C15U G17U U34A C37U | 0.09
C3G G5C C8U G19U G40U C42U | 0.03
U9A U38G C42G | 0.03
C10G A16U C42U | 0.01
C18U U34A A39U G40U | 0.02
G2U A16G G40A | 0.02
G7C C8A C13U U20A A26U C31G A41C | 0.22
A4C G5C C18G U38C G44C | 0.02
A11G G33U U34G C37U | 0.01
C3U G17C G21C | 0.32
A25G U34G A41G G44A | 0.02
C10A C23A U38C | 0.03
A26C G35U C37G | 0.08

Variant | self-cleavage
C15G U20G A25C A26C C31U | 0.02
A4U U20G A26G G27U U28G C37A C45U | 0.03
A4G G7U U9G | 0.18
C10G A26G U38G U43A | 0
C8U U20G G22A | 0.07
C3G A41U G44A | 2.14
A12U A24U C37U A41C | 0
C15U U20A G22A | 0.23
A4U G5A C8A U32A C46U | 0.1
C10A U32A U38C A39G A41U | 0.02
G5U G17U G21A | 0.06
C3U A14C G19C A26U G44U | 0.07
A14C C15A G40C | 0.01
A12U U20C A24C G29C G30U | 0.02
U9G U32C U43C | 0.09
G19U C23A A26C | 2.63
A4U C18G G36A | 0.21
C8G A11G G22U G35A | 0.03
U28G G35C G40A | 0.11
A4G C10G G27U C31U G44U | 0.02
G22A G30A G33U G40U | 0.04
U34A C45G C46U | 0.03
G2C C3U U9G C10U A12C G29U | 0.06
A6G C37A C45U | 0.02

Variant | self-cleavage
G5U G27A U28C | 0.02
G5U G17U G22A A25C | 0.01
G19A U20G G22U U28A C37G | 0.01
G1U A16C G27U G36U | 0.08
G5U C13A C18A U20C | 0.03
A6U C10G G40A C42G G44C | 0.02
A6C G44C C46G | 0.02
G7U A25G G36C | 0.14
A6G C18A C37U | 0.02
A16U G33U C42U | 0.24
A26C A39C G40C | 0.02
G30U C31U C37U | 0.01
A12G U32A G44C | 0.02
C10G G21C G30C G36C U38G | 0.01
A12C G17U C46U | 0.01
G2U A16G C31A | 0.02
C15G A16G C23U | 0.03
G7A G17A G44U | 0.01
G17A A26G G35A G40C | 0.05
G2U A24G U28A C31U A39U | 0.02
A14C G27C U28A G29C U43G | 0
U28A G36U C37U | 0.02
U20A G21A A26G C37U | 0
C10U G27U G33A U43G C46U | 0.01

Variant | self-cleavage
C8G G21U G36A | 0.02
A12C A26G U32C C46G | 0.05
G5A A6U A24C C37A | 0.02
U9C A16C C37G | 0.02
A4G C42G C45U | 0.15
A16C G19U G44U | 0.01
A12C G27C C31G | 0
C3A A16C G17A G33U C42U | 0.06
G2C C13G G29U G33A U34G U43C G44C | 0.01
G1C A4U C8G U9A U32A C42G | 0.02
G7U A11C G17A G30C G40C | 0.01
C18U C23U G27C | 0.6
G1C G21A U34C U38G A41G | 0.01
C3A A16G C31A | 0.03
U9C G17C C18U G29U | 0.01
C23A A24U G27A | 0.96
C23A G30C U32G G33C | 0.14
C10G G19A G36C A41U | 0.01
G5U G21U G30U U43C | 0.01
U20C G22U C37A C42A | 0.03
G1U G22U U34C | 0.12
G29A G33U G35A | 0.05
C15A G22A A25U A41C | 0.04
U9G C10G G21A C23A G40U C46U | 0

Variant | self-cleavage
C3A A14C G17U C18U G33A | 0.05
A4U C15A G27U G33U | 0.03
G1U A14U C18A A39U A41G G44C | 0.02
G1U C8U A14G C15A G17A | 0.2
A26U G27U G30A | 0.17
G1C A16C C37A | 0.03
C23U G35U C37G | 0.12
G21A C23A A39C | 0.14
C15G G17A G29A C42G | 0.04
G7U G22U G33U U43A | 0.34
C8G C15U A26G | 0.03
G5U C31A G33A U34C | 0.02
C3U U9C C10G U32C C45U | 0.08
G1A C3U U34A | 0.17
A24G U43A C46U | 0.07
A4G U9C U20G U28C C31A | 0.02
G33C U43C C45G C46A | 0.03
A4G C10G C37G | 0.01
A12G A16C A26U C42G | 0.05
C10A G29C A41G C46A | 0
C18A C23U C42U C45A | 0.01
A26U G29U G35C C37A U38G | 0.01
G19U G21A C37G G44U | 0.02
G2C C15A G17C C18U G21C G27U C42U C45U | 0.01

Variant | self-cleavage
A11G C15A A24C G27C C42A G44U | 0.01
A14C G30U U38C C45G | 0.01
A6G G19U G36A C45U | 0.04
G2U A14U C15G G36A G40U | 0.02
G1A G2C C23A | 0.17
G27U G30U G35C | 0.13
G17U C18A G30U | 0.15
G17C G22C A39C | 0.04
G5A A24C G33U U34C | 0.08
C3A U9C G17A A26U U34C | 0.04
G2A A12G C46G | 0.05
G17U G21U U43A | 0.09
C10A C15U G19U G30U G40C C42A | 0.02
C3A C18U G35U C37U | 0.34
G5C C8A G30A | 0.38
G1U A6G U34C C37U A39U | 0.02
A11U G40C U43G | 0
G5C G33U G40C C46A | 0.04
G19C A24C G29A | 0.46
G1A A4U U9C A11G C37U | 0.09
U9G C13U A14U G30U U32A G36U | 0.11
A24G G27C G30C | 0.55
G1C A14U C42A C46G | 0.03
C3U U9A G19C A24U | 0.13

Variant | self-cleavage
G2C C15G C31A G36U | 0.02
G2C C3U A24C G33U | 0.04
A16C G21U A26U G44C C45U | 0.01
G22U U28A C31G | 0.05
C8U A11C C37U | 0.02
G33U G40A A41U C45A | 0.11
C10U A12C A14U G44C | 0.02
A11C U34G U38G | 0
A12U G36A C37A | 0.02
G1U G7C C8G A11U C23U G35U C46A | 0.01
G2A G5A U9G C15A G17U C18A G33C U38A A41G | 0.02
C3U G5U U20A U34G C37U | 0.02
A6U G35U G40A | 0.27
G1U G7U A11C | 0
G21U U34G G36C | 0.03
G21A G30A C31U | 0.29
U28A G30C U34C C46U | 0.01
A14U C15U G17C U38C | 0.03
G29U C42U G44A | 0.04
G27U G30C G36C C45A | 0
U20G C31U A39U A41G | 0.03
U9G G30U C46G | 0.03
G2U G5A C31A A39G | 0.03
